Consider one substance from article PMC5392987.

Protein sequences, listed by entry. Tags and fused reporters are not part of them.
UniProt A1ZAW0: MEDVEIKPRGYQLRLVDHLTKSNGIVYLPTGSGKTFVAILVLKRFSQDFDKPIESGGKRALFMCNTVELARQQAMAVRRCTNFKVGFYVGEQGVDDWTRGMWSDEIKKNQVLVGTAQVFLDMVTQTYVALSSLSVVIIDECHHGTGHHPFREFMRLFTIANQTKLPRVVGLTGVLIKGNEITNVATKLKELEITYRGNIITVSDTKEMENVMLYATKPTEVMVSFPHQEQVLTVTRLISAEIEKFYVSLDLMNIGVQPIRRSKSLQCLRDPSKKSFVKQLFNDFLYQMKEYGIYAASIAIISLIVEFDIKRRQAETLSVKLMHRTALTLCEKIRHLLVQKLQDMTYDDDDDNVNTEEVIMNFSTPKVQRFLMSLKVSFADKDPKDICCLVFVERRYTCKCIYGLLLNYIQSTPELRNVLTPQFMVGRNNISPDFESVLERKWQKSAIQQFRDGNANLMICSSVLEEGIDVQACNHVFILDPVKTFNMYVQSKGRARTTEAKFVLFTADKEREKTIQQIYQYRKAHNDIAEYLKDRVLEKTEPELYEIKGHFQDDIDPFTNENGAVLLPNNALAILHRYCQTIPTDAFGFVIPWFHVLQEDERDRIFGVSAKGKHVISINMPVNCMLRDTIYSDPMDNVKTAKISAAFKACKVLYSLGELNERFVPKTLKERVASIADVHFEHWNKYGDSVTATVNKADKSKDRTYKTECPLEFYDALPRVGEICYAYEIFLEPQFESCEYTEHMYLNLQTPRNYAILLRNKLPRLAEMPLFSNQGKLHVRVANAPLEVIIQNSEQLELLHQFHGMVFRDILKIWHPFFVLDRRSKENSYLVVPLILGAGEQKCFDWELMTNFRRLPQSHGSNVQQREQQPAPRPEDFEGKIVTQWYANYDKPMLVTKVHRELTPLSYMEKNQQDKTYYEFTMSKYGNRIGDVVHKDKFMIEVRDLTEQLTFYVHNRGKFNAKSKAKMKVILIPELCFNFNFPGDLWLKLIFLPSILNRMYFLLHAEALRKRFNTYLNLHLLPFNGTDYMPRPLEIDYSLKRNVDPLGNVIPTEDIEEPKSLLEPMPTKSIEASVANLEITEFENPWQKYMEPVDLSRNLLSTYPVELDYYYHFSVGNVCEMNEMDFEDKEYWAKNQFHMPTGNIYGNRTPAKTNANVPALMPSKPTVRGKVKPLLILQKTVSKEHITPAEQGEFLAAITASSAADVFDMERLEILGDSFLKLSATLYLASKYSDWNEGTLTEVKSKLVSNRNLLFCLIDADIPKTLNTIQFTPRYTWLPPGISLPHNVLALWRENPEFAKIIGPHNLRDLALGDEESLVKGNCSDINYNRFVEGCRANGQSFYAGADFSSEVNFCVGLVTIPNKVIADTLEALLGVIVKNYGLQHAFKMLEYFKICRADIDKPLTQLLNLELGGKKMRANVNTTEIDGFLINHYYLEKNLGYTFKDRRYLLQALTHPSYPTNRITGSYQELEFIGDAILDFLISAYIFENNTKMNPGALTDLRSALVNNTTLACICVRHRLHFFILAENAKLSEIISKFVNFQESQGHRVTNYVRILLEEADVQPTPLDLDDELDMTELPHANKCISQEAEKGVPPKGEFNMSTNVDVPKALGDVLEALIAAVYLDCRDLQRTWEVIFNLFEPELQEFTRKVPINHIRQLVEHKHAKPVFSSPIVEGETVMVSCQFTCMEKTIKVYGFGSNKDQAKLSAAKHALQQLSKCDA

These are yes or no findings as the source states them, for the method shown. In cells and extracts the contact can be indirect. Some entries that bind do so weakly or less than the wild type. For some of these results: Where a sequence is shown, tags or fusion partners need not be part of it.

Test [1] deals with T1, HA-Symp (1-271) (Drosophila melanogaster) (UniProt Q8MSU4).
T1 sequence: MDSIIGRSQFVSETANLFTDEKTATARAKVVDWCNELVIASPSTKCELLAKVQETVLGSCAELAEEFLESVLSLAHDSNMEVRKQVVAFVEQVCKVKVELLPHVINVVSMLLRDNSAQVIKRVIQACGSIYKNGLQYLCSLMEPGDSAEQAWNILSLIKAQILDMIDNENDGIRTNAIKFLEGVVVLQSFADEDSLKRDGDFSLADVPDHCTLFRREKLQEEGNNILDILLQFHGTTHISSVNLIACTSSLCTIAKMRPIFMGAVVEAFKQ
Put plainly: co-IP; anti-HA immunoprecipitation of HA-tagged proteins stably expressed in Dmel-2 cells, from cell lysates; western blot for endogenous Dcr2. (Immunoblotting shows a protein as a band on a membrane.)

The target in test [2] is T2, HA-Symp (272-1165) (Drosophila melanogaster) (UniProt Q8MSU4).
T2 sequence: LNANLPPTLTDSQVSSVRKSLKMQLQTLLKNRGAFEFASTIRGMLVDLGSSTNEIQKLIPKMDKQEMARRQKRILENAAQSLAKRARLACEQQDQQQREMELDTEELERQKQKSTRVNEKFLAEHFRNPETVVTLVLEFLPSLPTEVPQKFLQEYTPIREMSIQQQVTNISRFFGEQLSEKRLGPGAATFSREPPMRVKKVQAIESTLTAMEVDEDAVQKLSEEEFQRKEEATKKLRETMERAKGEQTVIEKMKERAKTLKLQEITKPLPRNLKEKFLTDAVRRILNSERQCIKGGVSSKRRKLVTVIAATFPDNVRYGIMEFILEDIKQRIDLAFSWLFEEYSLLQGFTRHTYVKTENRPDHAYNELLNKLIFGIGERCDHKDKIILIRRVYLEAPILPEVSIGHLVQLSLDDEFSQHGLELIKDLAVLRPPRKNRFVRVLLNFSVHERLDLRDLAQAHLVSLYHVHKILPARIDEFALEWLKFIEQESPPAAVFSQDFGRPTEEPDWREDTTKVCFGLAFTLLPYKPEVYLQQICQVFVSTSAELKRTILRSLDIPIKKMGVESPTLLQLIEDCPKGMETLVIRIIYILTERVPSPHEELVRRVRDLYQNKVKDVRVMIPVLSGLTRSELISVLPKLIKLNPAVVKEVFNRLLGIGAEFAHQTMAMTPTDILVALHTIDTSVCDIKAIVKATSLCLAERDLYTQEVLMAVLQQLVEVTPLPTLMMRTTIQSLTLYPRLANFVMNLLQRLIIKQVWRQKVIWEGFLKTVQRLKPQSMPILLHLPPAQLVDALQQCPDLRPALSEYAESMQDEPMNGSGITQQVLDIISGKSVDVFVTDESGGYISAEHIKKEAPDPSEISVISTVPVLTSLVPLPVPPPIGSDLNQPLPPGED
The description is as above.

In test [3] the target is T3, HA-tagged full-length Symplekin (Drosophila melanogaster) (UniProt Q8MSU4).
T3 sequence: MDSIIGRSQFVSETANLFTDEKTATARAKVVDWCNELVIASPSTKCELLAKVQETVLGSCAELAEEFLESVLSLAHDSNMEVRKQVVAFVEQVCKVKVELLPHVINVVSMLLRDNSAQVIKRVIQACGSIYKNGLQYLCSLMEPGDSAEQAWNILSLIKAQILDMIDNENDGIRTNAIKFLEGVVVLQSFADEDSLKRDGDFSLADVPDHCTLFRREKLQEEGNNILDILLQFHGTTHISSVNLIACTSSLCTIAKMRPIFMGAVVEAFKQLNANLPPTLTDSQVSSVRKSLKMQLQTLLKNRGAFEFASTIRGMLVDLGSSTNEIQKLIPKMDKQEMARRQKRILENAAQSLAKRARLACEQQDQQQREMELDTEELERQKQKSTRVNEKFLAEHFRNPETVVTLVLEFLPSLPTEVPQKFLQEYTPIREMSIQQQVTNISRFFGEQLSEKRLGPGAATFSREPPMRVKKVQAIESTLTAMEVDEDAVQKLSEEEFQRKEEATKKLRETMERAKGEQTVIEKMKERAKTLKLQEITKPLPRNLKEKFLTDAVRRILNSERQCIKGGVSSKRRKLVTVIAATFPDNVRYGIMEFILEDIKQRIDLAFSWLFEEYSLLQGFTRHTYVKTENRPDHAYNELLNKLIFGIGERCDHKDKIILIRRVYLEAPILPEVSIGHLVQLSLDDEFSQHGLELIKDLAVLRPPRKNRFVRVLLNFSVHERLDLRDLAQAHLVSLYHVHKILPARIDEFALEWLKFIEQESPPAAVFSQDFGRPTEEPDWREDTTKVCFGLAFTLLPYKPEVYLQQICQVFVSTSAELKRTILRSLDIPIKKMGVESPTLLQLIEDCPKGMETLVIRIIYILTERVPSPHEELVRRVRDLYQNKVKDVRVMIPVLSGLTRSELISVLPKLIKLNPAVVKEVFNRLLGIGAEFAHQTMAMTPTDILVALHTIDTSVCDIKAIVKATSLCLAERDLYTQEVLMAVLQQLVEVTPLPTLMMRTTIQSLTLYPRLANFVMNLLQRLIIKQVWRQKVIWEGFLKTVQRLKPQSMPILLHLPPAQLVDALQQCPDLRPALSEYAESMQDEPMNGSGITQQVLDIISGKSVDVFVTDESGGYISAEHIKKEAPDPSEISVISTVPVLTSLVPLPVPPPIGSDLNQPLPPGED
The test is described as above.

The target in test [4] is T4, Symplekin (endogenous) (Drosophila melanogaster (endogenous in Dmel-2 cells)) (UniProt Q8MSU4).
T4 sequence: T3 sequence
Put plainly: co-IP; endogenous Dcr2 or Symplekin immunoprecipitated from 175 ug refined nuclear extract of Dmel-2 cells, dialysed in Buffer D (20 mM HEPES/KOH pH 7.9, 20% glycerol, 100 mM KCl, 0.2 mM EDTA, 0.5 mM DTT); western blot.

For “Dicer2 (endogenous) (from UniProt A1ZAW0 1-1722) (enzyme)”, the binding result in test [1] is listed as “binds”; in test [2] it was “no binding”; in test [3], “binds”; in test [4] it was “binds”.
